Reference: PubChem BioAssay AID1466 (National Center for Advancing Translational Sciences (NCATS), 2008)
Where “and” joins values, the source holds several entries; their conditions need not be identical. Identical values can stand only once. The campaign covered roughly 200,000 compounds. About 10 (0.005%) were called active. Inconclusive results, whose numbers are uncertain, are shown with a selection of clear calls. Calls follow the shape of the dose curve; as a rule, active = well fitted inhibition curve with a large enough effect; inconclusive = small, poorly fitted or top-dose-only effect, or effect the other way, or another doubt; inactive = no such curve, though single readings can be large or run the other way. Potencies of inconclusive entries are doubtful fits and often do not repeat.

target: Lysosomal alpha-glucosidase (Homo sapiens) (UniProt P10253); assay: qHTS Assay for Inhibitors of Human alpha-Glucosidase as a Potential Chaperone Treatment of Pompe Disease; conditions: purified human GAA, 4-MU-alpha-glucoside fluorescence; activity change, negative = inhibition: at 76.9 µM (top of the series) unless noted;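 as to activity change, negative = inhibition: plate controls were uninhibited enzyme wells for no effect and no-enzyme background for full effect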
Outline: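 Human enzyme at 4 nM with 400 uM 4-methylumbelliferyl-alpha-D-pyranoside, citrate/phosphate buffer pH 5.0, 0.005% Tween-20, 20 min at room temperature. Compounds up to 77 uM. 4-MU fluorescence (Ex 365/Em 440) read after NaOH/glycine stop; AC50 from Hill fit.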
Potency is read from the fitted curve at half-maximal effect; tags tell the direction and shape of the fitted curve.

Potency, inconclusive:
O=C(Nc1nc(-c2ccc(S(=O)(=O)N3CCCCCC3)cc2)cs1)c1ccccc1 56.2 µM [inhibitor, single point]
COc1cccc(/C=C/C(=C2/C(=O)N(c3ccccc3)N=C2C)c2ccc(C)cc2)c1OC 56.2 µM [inhibitor, single point]
Cc1ccc(-c2nnc(-c3cccc(Br)c3)o2)cc1 14.1 µM [inhibitor, partial curve, poor fit]
Cc1cc(C)n(-c2nnc(C)n2N)n1 35.5 µM [activator, partial curve]
CCOC(=O)c1nc2sc3c(c2c(=O)[nH]1)CCCC3 39.8 µM [activator, single point] and 20 µM [activator, partial curve]
Cc1ccc(/C=C2\SC(=S)N(/N=C/c3cc([N+](=O)[O-])ccc3O)C2=O)o1 35.5 µM [inhibitor, single point]
COc1ccc2nc(SCC(=O)Nc3ccc(S(=O)(=O)Nc4onc(C)c4C)cc3)[nH]c2c1 39.8 µM [activator, partial curve]
COc1ccc2cc(C(=O)Nc3ccc(S(N)(=O)=O)cc3)sc(=O)c2c1OC 12.6 µM [activator, single point]
COc1ccccc1N1CCN(C(=O)CCc2ccc(S(=O)(=O)NC(C)C)cc2)CC1 63.1 µM [inhibitor, partial curve, poor fit]
CC(C(=O)NC1CC1)c1ncc(C(F)(F)F)cc1Cl (stereo not given) 2.24 µM [activator, full curve, poor fit]
Cc1ccc(S(=O)(=O)N2CCOCC2)cc1N/N=C(\C#N)c1nc2ccccc2[nH]1 28.2 µM [inhibitor, single point]
COCCCn1c2nc3ccccc3nc2c2c(=O)n(CC3CCCO3)cnc21 (stereo not given) 22.4 µM [activator, partial curve]
COc1cccc(-c2cc(C(F)(F)F)n3nc(C(=O)N4CCCCC4c4cccnc4)cc3n2)c1 (stereo not given) 50.1 µM [inhibitor, partial curve, poor fit]
Cc1ccc(Cl)cc1NC(=O)c1cccc(OC(F)F)c1 7.94 µM [inhibitor, full curve, poor fit]
O=C(CCn1c(=O)sc2ccccc21)NCCC1=CCCCC1 31.6 µM [activator, partial curve, poor fit]
O=C(Nc1cccc(Cl)c1)Nc1nnc(-c2ccncc2)s1 28.2 µM [activator, partial curve]
Nc1c(S(=O)(=O)c2cccs2)c2nc3ccccc3nc2n1Cc1ccccc1 31.6 µM [activator, partial curve]
[O-][n+]1onc2c1CCc1nnc(-c3ccccc3)cc1-2 1.58 µM [inhibitor, partial curve]
CN1C(=O)C2(c3ccccc31)C1CCCC=C1C(C#N)=C(N)C2(C#N)C#N (stereo not given) 50.1 µM [inhibitor, partial curve]
O=c1nc2ccccc2c(NS(=O)(=O)c2ccc(Cl)cc2)n1-c1ccccc1 35.5 µM [activator, single point]
O=C(Nc1ccc(S(=O)(=O)N2CCCC2)cc1)C1CC(=O)N(c2ccccc2)C1 (stereo not given) 25.1 µM [inhibitor, single point]
CC(C)(C)C1CCC(OCC(O)CN2CCN(Cc3ccccc3)CC2)CC1 (stereo not given) 56.2 µM [inhibitor, single point]
COc1ccc(Cn2c(=O)[nH]c3cc(C(=O)NCCCN4CCCCCC4)ccc3c2=O)cc1 28.2 µM [activator, single point]
CCN(CC)CCC(=O)Nc1cccc2c1C(=O)c1ccccc1C2=O 31.6 µM [inhibitor, single point]

Potency, inactive:
COc1ccccc1CNC(=O)CSc1ccc(C)cc1
O=C(N/N=C/c1c(Cl)cccc1Cl)c1n[nH]c2c1CCCC2
C/[N+]([O-])=C\c1ccc([N+](=O)[O-])o1

Activity change, negative = inhibition, inconclusive:
CCN(CC)C(=O)C(=O)c1cn(CC(=O)NCc2ccc3c(c2)OCO3)c2ccccc12 11.9% [activator]
N#Cc1cnn2ccc(-c3ccc4c(c3)CCC4)nc12 43.7% [activator]
Cc1ccc2c(c1)nnn2C1CCN(CC(=O)NNC(=O)c2ccco2)CC1 21.8% [activator]
CCC(=O)Nc1ccc(-c2cc3ccccc3oc2=O)cc1 16.3% [activator]
c1ccc(Cn2c(-c3ccccc3)nc3nc4ccccc4nc32)cc1 18.3% [activator]
O=C(O)CC1(O)C(=O)N(Cc2ccccc2)c2ccccc21 (stereo not given) 6.45% [activator]
CC1CCc2c(sc(NC(=O)Cn3cnc([N+](=O)[O-])n3)c2C(N)=O)C1 (stereo not given) 16.3% [activator]
CCN(CC)S(=O)(=O)c1cccc(-c2nnc(SC(C)C#N)n2Cc2ccccc2)c1 (stereo not given) -16.2% [inhibitor]
Cc1cccn2c(=O)c(C=O)c(N3CCCCC3)nc12 -15.2% [inhibitor]
N#C/C(=C\c1cn[nH]c1-c1ccc(Cl)cc1)C(=O)NCc1ccccc1 -16.4% [inhibitor]
CCOC1(C)OCC(=O)[C@]2(CCC3C4CCC5=CC(=O)C=CC5(C)C4C(=O)CC32C)O1 (stereo not given in full) -15.5% [inhibitor]
O=C(c1ccco1)N(Cc1ccccc1)Cc1ccccn1 9.82% [activator]
COc1ccc(-c2cc(C(F)F)n3ncc(C(=O)N4CCc5ccccc54)c3n2)cc1 16.9% [activator]
